# Laboratory results published in PubChem BioAssay AID1768 (National Center for Advancing Translational Sciences (NCATS), 2009).
# The campaign covered roughly 270,000 compounds. About 620 (0.23%) were called active. Inconclusive results, whose numbers are uncertain, are shown with a selection of clear calls. Calls come from the whole dose curve; as a rule, active = well fitted inhibition curve with a large enough effect in the polarisation, with a control signal flat (not every such curve was filed as active); inconclusive = small, poorly fitted or top-dose-only effect, or effect the other way, or a change in a side signal; inactive = no such curve, though single readings can be large or run the other way; the % refers to the polarisation. Potencies beside an inconclusive call are fits to weak or partial responses and may not hold up. “Side channel” marks fits to a control or component signal instead of the main read-out.
# Target: Menin (Homo sapiens) (UniProt O00255)
# UniProt O00255, sequence (O00255 whole entry, looked up): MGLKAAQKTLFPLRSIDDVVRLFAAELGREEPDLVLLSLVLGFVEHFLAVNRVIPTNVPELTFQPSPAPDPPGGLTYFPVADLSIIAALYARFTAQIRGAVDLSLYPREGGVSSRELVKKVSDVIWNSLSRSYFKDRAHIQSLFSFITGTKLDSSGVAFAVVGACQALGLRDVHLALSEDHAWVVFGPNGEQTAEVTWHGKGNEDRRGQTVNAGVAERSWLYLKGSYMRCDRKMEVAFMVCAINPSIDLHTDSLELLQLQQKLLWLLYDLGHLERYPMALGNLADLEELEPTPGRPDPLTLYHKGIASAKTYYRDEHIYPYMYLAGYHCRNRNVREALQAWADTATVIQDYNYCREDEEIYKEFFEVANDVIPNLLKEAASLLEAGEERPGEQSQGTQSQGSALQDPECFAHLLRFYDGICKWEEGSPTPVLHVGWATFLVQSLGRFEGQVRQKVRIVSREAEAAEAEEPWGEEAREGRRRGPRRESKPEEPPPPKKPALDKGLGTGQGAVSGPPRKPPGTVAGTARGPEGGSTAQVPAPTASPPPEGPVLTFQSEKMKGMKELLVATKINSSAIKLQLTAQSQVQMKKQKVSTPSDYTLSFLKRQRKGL
# Assay: qHTS Assay for Inhibitors Targeting the Menin-MLL Interaction in MLL Related Leukemias: Competition With Texas Red Labeled MLL-derived Mutant Peptide; for FP activity change, negative = inhibition: % of control where 0% means no effect
# Settings: fluorescence polarization; FP activity change, negative = inhibition: at 61.6 µM (top of the series)
# Potency is the fitted concentration of half-maximal effect; tags give direction and shape of the fitted curve or compound fluorescence and quenching.
Compound,Potency,"FP activity change, negative = inhibition"
CCC(CC)NC(=O)Nc1ccccc1C,inactive,
COCCn1c(=O)[nH]c2cc(C(=O)Nc3ccc(OC)c(Cl)c3)ccc2c1=O,"inconclusive: 3.98 µM [activator, single point]",
O=C(Cc1cccs1)Nc1ccc(S(=O)(=O)N2CCCC2)cc1,"inconclusive: 17.8 µM [quencher, side channel, partial curve]",
CC(C)COP(=O)(c1ccc(N(C)C)cc1)C(O)c1ccccc1 (centres undefined),"inconclusive: 14.1 µM [fluorescent, side channel, partial curve]",
COc1ccc(C(=O)Nc2nnc(SCC(=O)NC3CC3)s2)cc1,"inconclusive: 31.6 µM [inhibitor, single point]",
CCOc1ccccc1N1CCN(C(=O)C(Sc2ccccc2)c2ccccc2)CC1 (centres undefined),"inconclusive: 8.91 µM [inhibitor, full curve]",
N#CC(c1ccc(Cl)cc1)c1c(Cl)cc(-n2ncc(=O)[nH]c2=O)cc1Cl (centres undefined),"inconclusive: 35.5 µM [quencher, side channel, partial curve]",
COc1ccc(-c2nn(-c3ccccc3)cc2/C=C\C(=O)Nc2ccc(C(=O)O)cc2)cc1,"inconclusive: 2.24 µM [quencher, side channel, full curve]",
Cc1nn(-c2ccc(Cl)cc2)c2sc(C(=O)c3c(N)n(C)c(=O)n(C)c3=O)cc12,"inconclusive: 12.6 µM [fluorescent, side channel, partial curve]",
Cc1nc2sc(C(c3ccco3)N3CCN(c4ccc(F)cc4)CC3)c(O)n2n1 (centres undefined),"inconclusive: 7.08 µM [inhibitor, full curve, poor fit]",
CC(C)(O)C(=O)NN(C(=O)c1ccccc1)c1ccc2ccccc2c1,"inconclusive: 39.8 µM [quencher, side channel, single point]",
COc1ccc(C(=O)CSc2nnc(-c3ccco3)c(-c3ccco3)n2)cc1,"inconclusive: 22.4 µM [quencher, side channel, partial curve]",
O=C(NC1CCC(O)CC1)c1cc(-c2ccco2)nc2ccccc12 (centres undefined),"inconclusive: 25.1 µM [quencher, side channel, single point]",
O=C(O)c1cc(N/N=C/c2cccc3ccccc23)ccc1Cl,"inconclusive: 22.4 µM [quencher, side channel, single point]",
CC(C)CCOP(=O)(c1ccc(N(C)C)cc1)C(O)c1ccc(N(C)C)cc1 (centres undefined),"inconclusive: 7.08 µM [inhibitor, partial curve]",
Cc1cc(C)cc(N2CCCn3c2nc2c3c(=O)[nH]c(=O)n2C)c1,"inconclusive: 5.01 µM [inhibitor, full curve, poor fit]",
Cc1cnc(CN2CCc3c([nH]c4ccccc34)C2C2CCCCC2)[nH]1 (centres undefined),inactive,
Cc1ccc(OCC(O)CN2CCOCC2)c(C)c1 (centres undefined),"inconclusive: 56.2 µM [inhibitor, partial curve, poor fit]",
C/C(=N\O)c1ccc2c3c([nH]c2c1)CCCC3,inactive,
CC(Sc1nc2ccccc2s1)C(=O)c1c(N)n(C)c(=O)n(C)c1=O (centres undefined),"inconclusive: 39.8 µM [quencher, side channel, single point]",

Compound,Potency,"FP activity change, negative = inhibition"
O=C(COC(=O)c1ccc([N+](=O)[O-])s1)Nc1ccc(Cl)cn1,"inconclusive: 39.8 µM [quencher, side channel, single point]",
COc1ccc2[nH]c(S(=O)Cc3ncc(C)c(OC)c3C)nc2c1 (centres undefined),"inconclusive: 14.1 µM [inhibitor, partial curve]",
O=C(NCc1cccs1)c1csc2c1CCCCC2,"inconclusive: 39.8 µM [inhibitor, single point]",
O=[N+]([O-])c1ccc(Nc2ccccc2F)nc1,"inconclusive: 20 µM [quencher, side channel, partial curve]",
O=C(N1CCN(Cc2ccccc2)CC1)C12CC3CC(CC(C3)C1)C2,"inconclusive: 31.6 µM [inhibitor, partial curve]",
CO[C@@H]1COC(=O)C/C=C\[C@@H](C)[C@@H]2C=C[C@H](O)[C@@H](COC(=O)CCC[C@H]1C)O2,,inactive: -5.96% [at 11.7 µM]
Cc1ccccc1NC(=O)c1onc2c1CCCC2,"inconclusive: 7.08 µM [fluorescent, single point]",
COCCn1c(=S)[nH]c2cc(C(=O)NC(C)C)ccc2c1=O,"inconclusive: 4.47 µM [inhibitor, single point]",
OCCC1CN(Cc2ccccc2O)CCN1CCc1ccccc1 (centres undefined),inactive,
O=c1c2ccccc2c(/C=N/c2ncn[nH]2)c(O)n1Cc1ccccc1,"inconclusive: 25.1 µM [quencher, side channel, partial curve]",
CCN(CC)c1ccc(/C=N/NC(=O)OC)c(O)c1,inactive,
N#Cc1cc(C(=O)c2cc(F)ccc2O)cn(-c2nccs2)c1=O,"inconclusive: 25.1 µM [quencher, side channel, single point]",
COc1ccc(C2SCCN2C(=S)Nc2cccc(C(F)(F)F)c2)cc1 (centres undefined),"inconclusive: 14.1 µM [quencher, side channel, partial curve]",
CCOc1ccc(NC(=O)CCC(=O)Oc2ccc(C)cc2)cc1,"inconclusive: 39.8 µM [inhibitor, single point]",
CSCc1nnc(NC(=O)c2ccc(S(=O)(=O)N3CCCCC3C)cc2)o1 (centres undefined),"inconclusive: 20 µM [quencher, side channel, partial curve]",
O=C(COC(=O)COc1ccc(Nc2ccccc2)cc1)NCc1ccco1,"inconclusive: 14.1 µM [quencher, side channel, partial curve]",
Cn1cc(Cl)c(C(=O)Nc2nc3ccc(Cl)cc3s2)n1,"inconclusive: 31.6 µM [inhibitor, single point]",
Cc1ccc(NC(=O)c2cc(S(=O)(=O)N3CCOCC3)c(Br)s2)cc1,"inconclusive: 22.4 µM [quencher, side channel, partial curve, poor fit]",
O=C(CSc1nc(C2CC2)nc2c1cnn2-c1ccccc1)Nc1c[nH]c(=O)[nH]c1=O,"inconclusive: 35.5 µM [fluorescent, side channel, single point]",
COc1ccc(-c2cc(N)n(S(=O)(=O)c3c(F)c(F)c(F)c(F)c3F)n2)cc1OC,"inconclusive: 7.94 µM [quencher, side channel, partial curve]",

Compound,Potency,"FP activity change, negative = inhibition"
COc1cc(/C=C2\SC(=S)N(NC(=O)c3ccc(O)c(OC)c3)C2=O)ccc1O,"inconclusive: 15.8 µM [fluorescent, side channel, partial curve]",
CCCCC1=CC2=C(OC(C)=O)C(=O)C(C)(OC(=O)CCC(=O)OC)C(=O)C2=CO1 (centres undefined),inactive,
c1ccc(CSc2nnc3c(n2)OC(c2ccco2)Nc2ccccc2-3)cc1 (centres undefined),"inconclusive: 39.8 µM [quencher, side channel, single point]",
O=C(NCc1ccccc1)Nc1cccn(Cc2ccc(Cl)cc2)c1=O,"inconclusive: 39.8 µM [inhibitor, single point]",
Cc1ccc(Nc2nnc(SCC(=O)NC(Cc3c[nH]c4ccccc34)C(=O)O)s2)cc1 (centres undefined),"inconclusive: 28.2 µM [quencher, side channel, single point]",
CCn1c(=O)c(C(=O)NNS(=O)(=O)c2ccc(NC(=O)OC)cc2)c(O)c2ccccc21,"inconclusive: 11.2 µM [quencher, side channel, partial curve]",
O=C1Nc2ccc(Cl)cc2C12Nc1ccccc1-c1nnc(SCc3ccccc3F)nc1O2 (centres undefined),"inconclusive: 22.4 µM [quencher, side channel, single point]",
O=c1[nH]sc2ccccc12,inactive,
CCCCCOC(=O)Nc1ccc(S(=O)(=O)Nc2cccc([N+](=O)[O-])c2)cc1,"inconclusive: 25.1 µM [quencher, single point]",
CC(Sc1nc(-c2ccccc2)cc(C(F)(F)F)n1)C(=O)N1CCCCC1 (centres undefined),"inconclusive: 3.55 µM [fluorescent, side channel, full curve]",
CC1CCCCC1NC(=O)CN1CCC(NC(=O)c2cccc(F)c2)CC1 (centres undefined),"inconclusive: 7.08 µM [inhibitor, single point]",
O=C(O)CCCN1C(=O)c2cccc3cccc(c23)C1=O,"inconclusive: 39.8 µM [quencher, side channel, single point]",
O=C(NCc1ccco1)C(c1ccncc1)N(C(=O)Cc1cccs1)c1ccccc1 (centres undefined),inactive,
Cc1ccc(C)c(NC(=O)NNC(=O)c2ccc3ccccc3c2O)c1,"inconclusive: 20 µM [quencher, side channel, partial curve]",
O=c1ccc(N=Nc2ccccc2)ccc1O,"inconclusive: 28.2 µM [quencher, side channel, partial curve]",
COc1ccc(NC(=O)Cn2cc(C(=O)c3ccco3)c3ccccc32)cc1,"inconclusive: 28.2 µM [quencher, side channel, single point]",
O=C(Nc1ccc(CN2CCCCC2)cc1)Nc1ccc(Br)cc1Cl,"inconclusive: 35.5 µM [inhibitor, partial curve]",
COc1cc(NC(=O)c2ccc([N+](=O)[O-])o2)ccc1NC(=O)c1ccco1,"inconclusive: 25.1 µM [quencher, side channel, partial curve]",
Cc1ccc(C(=O)Nc2ccc(S(=O)(=O)N3CCCC3)cc2)s1,"inconclusive: 39.8 µM [quencher, side channel, single point]",
